B1: unnamed (peptide)
chain: APAELKSPF
B2: unnamed (peptide)
chain: RPYSQVNVL
B3: unnamed (peptide)
chain: SPTKLDVTL
B4: unnamed (peptide)
chain: KPGDFIHTL
B5: unnamed (peptide)
chain: SPFLKGFL
B6: unnamed (peptide)
chain: VPLPRLLEV
B7: unnamed (peptide)
chain: LPRAPGQAP
B8: unnamed (peptide)
chain: RPIESPGGSVL
B9: unnamed (peptide)
chain: SPRPAPLLL
B10: unnamed (peptide)
chain: HPRKGFPGSL
B11: unnamed (peptide)
chain: SPSFPRPSL
B12: unnamed (peptide)
chain: SPQDFGLVL
B13: unnamed (peptide)
chain: IPYKPNYSL
B14: unnamed (peptide)
chain: GPRAVFVLL
B15: unnamed (peptide)
chain: APRALLQDVL
B16: unnamed (peptide)
chain: APIDRVGQTI
B17: unnamed (peptide)
chain: LPKPPGRGV
B18: unnamed (peptide)
chain: SPRLSQTFLQL
B19: unnamed (peptide)
chain: KPYTPVSGSLL
B20: unnamed (peptide)
chain: KPYQGNPTF
B21: unnamed (peptide)
chain: APEVAKSWAAL
B22: unnamed (peptide)
chain: APAGRKVGL
B23: unnamed (peptide)
chain: SPTYRALLL
B24: unnamed (peptide)
chain: KPSSFTTSF
B25: unnamed (peptide)
chain: VPFERPAVI
B26: unnamed (peptide)
chain: VPRAILVDL
B27: unnamed (peptide)
chain: RPADVIFATV
B28: unnamed (peptide)
chain: LPRGSSPSVL
B29: unnamed (peptide)
chain: VPEEARPAL
B30: unnamed (peptide)
chain: MPQSGTGVSV
B31: unnamed (peptide)
chain: FPSEPNRLL
B32: unnamed (peptide)
chain: RPDPAGHLTL
B33: unnamed (peptide)
chain: LPSPFLRAL
B34: unnamed (peptide)
chain: HPRVGDLIL
B35: unnamed (peptide)
chain: LPSGQRAGFL
B36: unnamed (peptide)
chain: KPSPIYGGL
B37: unnamed (peptide)
chain: SPAPKQEL
B38: unnamed (peptide)
chain: QPSFPTPQL
B39: unnamed (peptide)
chain: RPRPGNILLQL
B40: unnamed (peptide)
chain: TPKMPGQSV
B41: unnamed (peptide)
chain: APIIRVGGAL
B42: unnamed (peptide)
chain: LPRAFLQSL
B43: unnamed (peptide)
chain: RPAIVQNITF
B44: unnamed (peptide)
chain: KPWLRALQL
B45: unnamed (peptide)
chain: SPVLRNFTF
B46: unnamed (peptide)
chain: APPVRPQNSL
B47: unnamed (peptide)
chain: RPASPPVVKL
B48: unnamed (peptide)
chain: RPLPGALGV
B49: unnamed (peptide)
chain: LPAPSWRAL
B50: unnamed (peptide)
chain: RPDSPAHVL
B51: unnamed (peptide)
chain: SPQLGRAVQLL
B52: unnamed (peptide)
chain: APRAGQPLQL
B53: unnamed (peptide)
chain: FPHLREEIL
B54: unnamed (peptide)
chain: LPRGLAGAL
B55: unnamed (peptide)
chain: FPIHVQTSL
B56: unnamed (peptide)
chain: YPLPAVKVSM

In all, about 1,400 sequences were measured (“thermal melting temperature (Tm) of peptide-HLA complex”: median about 60, lowest 2% from about 45 on). The list shows a part of the results.
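Also: cell lysates heated 10 min at 37–73 °C, remaining pHLA pulled down with pan-class I antibody, peptides quantified by DIA-MS versus 37 °C, Tm where half the complex is lost.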

The target of the test is HLA-B*07:02. Kind of test: thermal melting temperature (Tm) of peptide-HLA complex; higher = more thermostable pHLA complex. The following applies: C1R-B*07:02.
B1 had a thermal melting temperature of 60.7 °C. As for B2, the figure is 59.8 °C; as for B3, 54.9 °C; as for B4, 55.6 °C. As for B5, the figure is 62.6 °C; as for B6, 61.8 °C; as for B7, 57.1 °C.

In turn, B8 registered a thermal melting temperature of 45.3 °C.

As for B9, the thermal melting temperature is 62.3 °C. Sequence B10 yielded a thermal melting temperature of 45 °C. In turn, B11 displayed a thermal melting temperature of 61.4 °C. In the case of B12, the thermal melting temperature came out at 60.7 °C. As for B13, the figure is 60.3 °C; as for B14, 62.4 °C.

On to B15, for which the thermal melting temperature turned out to be 61.9 °C. B16 gave a thermal melting temperature of 53.3 °C. The value for B17 was 59.2 °C; that for B18 was 61 °C; that for B19 was 58.3 °C. The value for B20 was 57.5 °C; that for B21 was 62 °C; that for B22 was 61.2 °C. As for B23, the figure is 62 °C. B24 showed a thermal melting temperature of 50.9 °C. As for B25, the figure is 61.2 °C; as for B26, 62.4 °C. B27 displayed a thermal melting temperature of 59 °C. As for B28, the figure is 59.5 °C. The value for B29 was 58.4 °C; that for B30 was 49.5 °C. As for B31, the figure is 57.6 °C; as for B32, 56 °C.

Sequence B33 registered a thermal melting temperature of 60.7 °C.

B34 gave a thermal melting temperature of 58.5 °C. As for B35, the figure is 60.2 °C; as for B36, 53.7 °C. As for B37, the figure is 55 °C; as for B38, 62.1 °C; as for B39, 55.6 °C.

B40 returned a thermal melting temperature of 56.1 °C. As for B41, the figure is 59.9 °C; as for B42, 62.4 °C. As for B43, the figure is 60.3 °C; as for B44, 59.7 °C. B45: the thermal melting temperature was found to be 41.7 °C.

On to B46, for which the thermal melting temperature came to 55.2 °C. As for B47, the figure is 59 °C; as for B48, 59 °C. As for B49, the figure is 62.9 °C; as for B50, 58.7 °C. As for B51, the figure is 62.6 °C; as for B52, 59.4 °C; as for B53, 51.6 °C. In the case of B54, the thermal melting temperature stood at 63 °C. Take B55: the thermal melting temperature amounted to 60.9 °C. As for B56, the figure is 59.8 °C.

For the origin of these results see the supplement of paper PMC7726561.
